# Results reported in the supplement of paper PMC8728848.
# This is one part of the list.
# B1: rCnSL-proB (Clitocybe nebularis) (protein)
# chain: PTFSPIFALLAFLPFGTLASLLPQTQLVFRINPNLPGPNDVFVGYRGTNNVVGAIYERDGIKDTPMNNGADAELGPGSYITDDLFTAQIFASGSAGNNPGTTATVCKIYADGVQWRGAPKGYLPVLYFGNGQAAEQTRQTYLQGLDIPGTAIRFANLAKTPNQGPTAPRQMVVPSGGLQTLLKASCFPANHAALPQVLSYFNVRAALPPGWNIRTGPEFPNWTN
# Columns and labels:
# Assay in all cases: glycan array binding signal (z-score within array); higher = stronger binding
# Conditions in all cases: glycan notation: IUPAC condensed, linker removed
# [1] = target: Neu5Ac(a2-3)Gal(b1-3)GlcNAc6S
# Procedure, shortened: (§1)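 Arrays were curated from the Consortium for Functional Glycomics database, 3228 in total, and kept only where the protein sequence was available. Binding is expressed as a within-array Z-score. This score was averaged across arrays of the same protein sequence at different concentrations or buffers and across linkers, and negative values can be read as non-binding.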
# [2] = target: Neu5Ac(a2-3)Gal(b1-3)[Fuc(a1-4)]GlcNAc
# Procedure, shortened: as §1
# [3] = target: Neu5Ac(a2-3)Gal(b1-3)[Fuc(a1-4)]GlcNAc(b1-3)Gal(b1-3)[Fuc(a1-4)]GlcNAc
# Procedure, shortened: as §1
# [4] = target: Neu5Ac(a2-3)Gal(b1-3)[Fuc(a1-4)]GlcNAc(b1-3)Gal(b1-4)[Fuc(a1-3)]GlcNAc
# Procedure, shortened: as §1
# [5] = target: Neu5Ac(a2-3)Gal(b1-3)[GlcNAc(b1-6)]GalNAc
# Procedure, shortened: as §1
# [6] = target: Neu5Ac(a2-3)Gal(b1-3)[Neu5Ac(a2-6)]GalNAc
# Procedure, shortened: as §1
# [7] = target: Neu5Ac(a2-3)Gal(b1-3)[Neu5Ac(a2-6)]GlcNAc(b1-3)[Fuc(a1-3)[Gal(b1-4)]GlcNAc(b1-6)]Gal(b1-4)Glc
# Procedure, shortened: as §1
# [8] = target: Neu5Ac(a2-3)Gal(b1-3)]Neu5Ac(a2-3)Gal(b1-4)]GlcNAc
# Procedure, shortened: as §1
# Neu5Ac(a2-3)Gal(b1-4)Glc = target: Neu5Ac(a2-3)Gal(b1-4)Glc
# Procedure, shortened: as §1
# [9] = target: Neu5Ac(a2-3)Gal(b1-4)GlcNAc
# Procedure, shortened: as §1
# [10] = target: Neu5Ac(a2-3)Gal(b1-4)GlcNAc(b1-2)Man
# Procedure, shortened: as §1
# [11] = target: Neu5Ac(a2-3)Gal(b1-4)GlcNAc(b1-2)Man(a1-3)[GlcNAc(b1-4)][Neu5Ac(a2-3)Gal(b1-4)GlcNAc(b1-2)Man(a1-6)]Man(b1-4)GlcNAc(b1-4)GlcNAc
# Procedure, shortened: as §1
# [12] = target: Neu5Ac(a2-3)Gal(b1-4)GlcNAc(b1-2)Man(a1-3)[Neu5Ac(a2-3)Gal(b1-4)GlcNAc(b1-2)Man(a1-6)]Man(b1-4)GlcNAc(b1-4)GlcNAc
# Procedure, shortened: as §1
# [13] = target: Neu5Ac(a2-3)Gal(b1-4)GlcNAc(b1-2)Man(a1-3)[Neu5Ac(a2-3)Gal(b1-4)GlcNAc(b1-2)Man(a1-6)]Man(b1-4)GlcNAc(b1-4)[Fuc(a1-6)]GlcNAc
# Procedure, shortened: as §1
# [14] = target: Neu5Ac(a2-3)Gal(b1-4)GlcNAc(b1-2)Man(a1-3)[Neu5Ac(a2-6)Gal(b1-4)GlcNAc(b1-2)Man(a1-6)]Man(b1-4)GlcNAc(b1-4)GlcNAc
# Procedure, shortened: as §1
# [15] = target: Neu5Ac(a2-3)Gal(b1-4)GlcNAc(b1-2)[Neu5Ac(a2-3)Gal(b1-4)GlcNAc(b1-4)]Man(a1-3)[GlcNAc(b1-4)][Neu5Ac(a2-3)Gal(b1-4)GlcNAc(b1-2)[Neu5Ac(a2-3)Gal(b1-4)GlcNAc(b1-6)]Man(a1-6)]Man(b1-4)GlcNAc(b1-4)GlcNAc
# Procedure, shortened: as §1
# [16] = target: Neu5Ac(a2-3)Gal(b1-4)GlcNAc(b1-2)[Neu5Ac(a2-3)Gal(b1-4)GlcNAc(b1-4)]Man(a1-3)[GlcNAc(b1-4)][Neu5Ac(a2-3)Gal(b1-4)GlcNAc(b1-4)Man(a1-6)]Man(b1-4)GlcNAc(b1-4)GlcNAc
# Procedure, shortened: as §1
# [17] = target: Neu5Ac(a2-3)Gal(b1-4)GlcNAc(b1-2)[Neu5Ac(a2-3)Gal(b1-4)GlcNAc(b1-6)]Man(a1-6)[Neu5Ac(a2-3)Gal(b1-4)GlcNAc(b1-2)Man(a1-3)][GlcNAc(b1-4)]Man(b1-4)GlcNAc(b1-4)GlcNAc
# Procedure, shortened: as §1
# [18] = target: Neu5Ac(a2-3)Gal(b1-4)GlcNAc(b1-3)Gal
# Procedure, shortened: as §1
# [19] = target: Neu5Ac(a2-3)Gal(b1-4)GlcNAc(b1-3)Gal(b1-3)GlcNAc
# Procedure, shortened: as §1
# [20] = target: Neu5Ac(a2-3)Gal(b1-4)GlcNAc(b1-3)Gal(b1-4)GlcNAc
# Procedure, shortened: as §1
# [21] = target: Neu5Ac(a2-3)Gal(b1-4)GlcNAc(b1-3)Gal(b1-4)GlcNAc(b1-2)Man(a1-3)[Neu5Ac(a2-3)Gal(b1-4)GlcNAc(b1-3)Gal(b1-4)GlcNAc(b1-2)Man(a1-6)]Man(b1-4)GlcNAc(b1-4)GlcNAc
# Procedure, shortened: as §1
# [22] = target: Neu5Ac(a2-3)Gal(b1-4)GlcNAc(b1-3)Gal(b1-4)GlcNAc(b1-3)Gal(b1-4)GlcNAc
# Procedure, shortened: as §1
# [23] = target: Neu5Ac(a2-3)Gal(b1-4)GlcNAc(b1-3)Gal(b1-4)GlcNAc(b1-3)Gal(b1-4)GlcNAc(b1-2)Man(a1-3)[Neu5Ac(a2-3)Gal(b1-4)GlcNAc(b1-3)Gal(b1-4)GlcNAc(b1-3)Gal(b1-4)GlcNAc(b1-2)Man(a1-6)]GalNAc
# Procedure, shortened: as §1
# [24] = target: Neu5Ac(a2-3)Gal(b1-4)GlcNAc(b1-3)Gal(b1-4)GlcNAc(b1-3)GalNAc
# Procedure, shortened: as §1
# [25] = target: Neu5Ac(a2-3)Gal(b1-4)GlcNAc(b1-3)Gal(b1-4)GlcNAc(b1-3)[Neu5Ac(a2-3)Gal(b1-4)GlcNAc(b1-3)Gal(b1-4)GlcNAc(b1-6)]GalNAc
# Procedure, shortened: as §1
# [26] = target: Neu5Ac(a2-3)Gal(b1-4)GlcNAc(b1-3)Gal(b1-4)GlcNAc(b1-6)[Gal(b1-3)]GalNAc
# Procedure, shortened: as §1
# [27] = target: Neu5Ac(a2-3)Gal(b1-4)GlcNAc(b1-3)Gal(b1-4)[Fuc(a1-3)]GlcNAc
# Procedure, shortened: as §1
# [28] = target: Neu5Ac(a2-3)Gal(b1-4)GlcNAc(b1-3)GalNAc
# Procedure, shortened: as §1
# [29] = target: Neu5Ac(a2-3)Gal(b1-4)GlcNAc(b1-3)[Neu5Ac(a2-3)Gal(b1-4)GlcNAc(b1-6)]GalNAc
# Procedure, shortened: as §1
# [30] = target: Neu5Ac(a2-3)Gal(b1-4)GlcNAc(b1-6)GalNAc
# Procedure, shortened: as §1
# [31] = target: Neu5Ac(a2-3)Gal(b1-4)GlcNAc(b1-6)[Gal(b1-3)]GalNAc
# Procedure, shortened: as §1
# [32] = target: Neu5Ac(a2-3)Gal(b1-4)GlcNAc(b1-6)[Neu5Ac(a2-3)Gal(b1-3)]GalNAc
# Procedure, shortened: as §1
# [33] = target: Neu5Ac(a2-3)Gal(b1-4)GlcNAc6S
# Procedure, shortened: as §1
# [34] = target: Neu5Ac(a2-3)Gal(b1-4)[Fuc(a1-3)]GlcNAc
# Procedure, shortened: as §1
# [35] = target: Neu5Ac(a2-3)Gal(b1-4)[Fuc(a1-3)]GlcNAc(b1-2)Man
# Procedure, shortened: as §1
# [36] = target: Neu5Ac(a2-3)Gal(b1-4)[Fuc(a1-3)]GlcNAc(b1-3)Gal
# Procedure, shortened: as §1
# [37] = target: Neu5Ac(a2-3)Gal(b1-4)[Fuc(a1-3)]GlcNAc(b1-3)Gal(b1-4)GlcNAc
# Procedure, shortened: as §1
# [38] = target: Neu5Ac(a2-3)Gal(b1-4)[Fuc(a1-3)]GlcNAc(b1-3)Gal(b1-4)[Fuc(a1-3)]GlcNAc(b1-3)Gal(b1-4)[Fuc(a1-3)]GlcNAc
# Procedure, shortened: as §1
# [39] = target: Neu5Ac(a2-3)Gal(b1-4)[Fuc(a1-3)]GlcNAc(b1-3)GalNAc
# Procedure, shortened: as §1
# [40] = target: Neu5Ac(a2-3)Gal(b1-4)[Fuc(a1-3)]GlcNAc(b1-6)[Gal(b1-3)]GalNAc
# Procedure, shortened: as §1
# [41] = target: Neu5Ac(a2-3)Gal(b1-4)[Fuc(a1-3)]GlcNAc(b1-6)[Neu5Ac(a2-3)Gal(b1-3)]GalNAc
# Procedure, shortened: as §1
# [42] = target: Neu5Ac(a2-3)Gal(b1-4)[Fuc(a1-3)]GlcNAc6S
# Procedure, shortened: as §1
# [43] = target: Neu5Ac(a2-3)Gal6S(b1-4)GlcNAc
# Procedure, shortened: as §1
# [44] = target: Neu5Ac(a2-3)Gal6S(b1-4)[Fuc(a1-3)]GlcNAc
# Procedure, shortened: as §1
binder,measurement,setting,value
B1,glycan array binding signal (z-score),[1],0.395
same,glycan array binding signal (z-score),[2],-0.555
same,glycan array binding signal (z-score),[3],-1.06
same,glycan array binding signal (z-score),[4],0.025
same,glycan array binding signal (z-score),[5],-0.475
same,glycan array binding signal (z-score),[6],-0.637
same,glycan array binding signal (z-score),[7],0.033
same,glycan array binding signal (z-score),[8],-0.547
same,glycan array binding signal (z-score),Neu5Ac(a2-3)Gal(b1-4)Glc,0.387
same,glycan array binding signal (z-score),[9],-1.12
same,glycan array binding signal (z-score),[10],0.266
same,glycan array binding signal (z-score),[11],0.189
same,glycan array binding signal (z-score),[12],-0.625
same,glycan array binding signal (z-score),[13],-0.176
same,glycan array binding signal (z-score),[14],-0.374
same,glycan array binding signal (z-score),[15],-0.474
same,glycan array binding signal (z-score),[16],-0.531
same,glycan array binding signal (z-score),[17],-0.904
same,glycan array binding signal (z-score),[18],0.004
same,glycan array binding signal (z-score),[19],-0.271
same,glycan array binding signal (z-score),[20],0.006
same,glycan array binding signal (z-score),[21],1.89
same,glycan array binding signal (z-score),[22],-0.766
same,glycan array binding signal (z-score),[23],4.43
same,glycan array binding signal (z-score),[24],-0.334
same,glycan array binding signal (z-score),[25],0.264
same,glycan array binding signal (z-score),[26],-0.055
same,glycan array binding signal (z-score),[27],-0.633
same,glycan array binding signal (z-score),[28],-0.02
same,glycan array binding signal (z-score),[29],-0.215
same,glycan array binding signal (z-score),[30],-0.729
same,glycan array binding signal (z-score),[31],0.329
same,glycan array binding signal (z-score),[32],-0.239
same,glycan array binding signal (z-score),[33],-0.914
same,glycan array binding signal (z-score),[34],-0.485
same,glycan array binding signal (z-score),[35],-2.18
same,glycan array binding signal (z-score),[36],0.344
same,glycan array binding signal (z-score),[37],-0.211
same,glycan array binding signal (z-score),[38],-0.534
same,glycan array binding signal (z-score),[39],0.245
same,glycan array binding signal (z-score),[40],1.12
same,glycan array binding signal (z-score),[41],-0.168
same,glycan array binding signal (z-score),[42],-0.393
same,glycan array binding signal (z-score),[43],0.829
same,glycan array binding signal (z-score),[44],-0.882
